Test results: the supplement of paper PMC12632987
Over roughly 4,500 sequences, “median log2 fold change of GCK-ALFA target abundance (FLAG IP / Myc IP barcode read proportion)” has its median near 0.078; the lowest 2% begin near -0.6. This is one part of the list.

B1: GBRAP_83_6875 (protein)
chain: AEEITVAGPGDRVDELVDAAIDLHKEEGYKVSLEIIVTPEQRDKVLAALKRLADAGVETDVTVLAVGATPEEAAALKAEMEAIFAAAGVKAKVEVVLEEP
B2: GBRAP_52_6069 (protein)
chain: MEERIEKLAKEIAEAIAAGDMEKALAILEEAAKELSVEELKELLVKAAELVASLGDEAHERFVDLLDEFYDILLKEGISEEDALLIVGEAEAALAKAVAA
B3: GBRAP_128_3269 (protein)
chain: MDPAVVARARAAVDAIRTSSPAERRAIADAFADWLLAASVEDAEQAVEVVEERLPELSVEDLDILADALRARRPLADPEKANLLADLEVAALNEAEELEE
B4: GBRAP_184_5304 (protein)
chain: KIKEVDIEADSAEEAIKQIEKAAEEAEKEGKKLKLYLSLKNVSVEGFKKVMELLKKLKEEGKLEDAVVEVLNDKSEEEIDEFIKLADEAGVKLVIALPDE
B5: GBRAP_35_5536 (protein)
chain: MEDEEIVEMIVNTMEDIVEALPDVSPEDRAKLAEHLIRLAERIVEEKPKNKKLIKEAIENLERAIEIIKKSDLPEEVRERLIKRLEEVKEKLEKILKENE
B6: GBRAP_83_6891 (protein)
chain: MIVIAAGGTAEAVEAAVDAAIDLSKEEGEEVVLEAMLGPGAVPALLAGLDRLAAAGVKVELEVTVVARTREEAEATAARVEAHARASGAASKVRVDTEVV
B7: GBRAP_48_5821 (protein)
chain: HHMDEEELEKLVKETVEFMKEVYEEAKKEGLSDEEILKMIKAELGDLALELEEAGYEKAADYLLDPENREKLAKTLLEFFKEGKYEEAYKYLLEELKKAE
B8: GBRAP_83_6961 (protein)
chain: MIVVAASERPESIRSSIEAAIDLHKNEGKEVEIELFVTRENAPAALEGLKKAIDAGVEAEITLVTREEDREAAEALAAELKAYAAAKGRNTTVTVEVLPA
B9: GBRAP_160_4854 (protein)
chain: SEKLEKALKIIDEEEEFAVDAIREAPQSQRGAIATAIAGTALLTLEEEGLVSEETEEKLAAIVDDMAARLAAAADAPAEVHIAIVTEAFEKMKKVIKEEM
B10: GBRAP_14_3813 (protein)
chain: KEELIKKIKEILDELREELVELLGLDEAEVTKLVEKAEKEIKEAILTEKDPKKKIEEIMEKLRKEVEALAAKLGEDVAAAARALVTDAEHEILELIEESE
B11: GBRAP_160_4644 (protein)
chain: SEAVEEMHEIVDEYSEFALEAIEEGDMDNAIAAMRMMVGDLVLEADEDPRFSDEDVDELDKLGEKHVKELEEAKDKSKEELKKIVEEAKEELKKLIEEKY
B12: GBRAP_11_2798 (protein)
chain: KKEELEKAKKLAEELAKLLEQLIKEGVDNEELRKEIEKKLKELKELAEKYLDKGNQKLVEIIEELFKKIDEDPENALQYAQLALATARVLAGNILLDIEE
B13: GBRAP_184_5104 (protein)
chain: KTLVVEVVAKTAEEAIAQLDAAIDEAAAAGASLTVLLKLENVSEEEIVEVVRRVGERARAAGIPALTIGIENELSEETVDRLIKVADELGINLVLVIPDE
B14: GBRAP_160_4800 (protein)
chain: MERVKKVVEIFREELERALEMAKGETNEERVNIFDVELGSAIMEAIEEGLLNDEEEEVAAEVRDELVAEIAANPDLTEEELRELAERAVKELEERLRELE
B15: GBRAP_11_2702 (protein)
chain: KKEKLKKAAELARKAAEVVEQLLKEGVDNKELREELEKLLEELEKLTKEYGDKALQKLAEIAKELWEEAKADPENAVQYLKELLAALRVLEGQYLLEIEE
B16: GBRAP_160_4485 (protein)
chain: MEKLEKAKKEVEELIKEAVEAIKEAPPEQRLPIARAYAGEIAQTVYELGLVDDEEFEELLELAEKLMKEVVEASEKGEEAMEEKAKELLEKIKKFLEEKS
B17: GBRAP_125_2990 (protein)
chain: SEEEILEALAKILKALGFDDEDVKEAVELARKHGIKGTLYAALAALGADEAADAVAKLTEEQAKELVLKVAEELEKNPGMTPEEVVELLLKVANELLAKA
B18: GBRAP_160_4430 (protein)
chain: AEKLEKAKKEIDALFAEALEMMKGQTAEQRIVVLRVTEGEVKLELEELGLLTDEVDAVIDATFAAIIAHVAAHPDITDAELAALLDAAAATIKAELDKAA
B19: GBRAP_43_5766 (protein)
chain: SKELVDGAFETAILMLEDPSISEETKVKAIIAAFELAADEGYVNKELLKKVVELAGKTLSKESLEKILKAVEEIAKKYPEAKEAFEEAAALLKKKIEEKK
B20: GBRAP_160_4786 (protein)
chain: MERIERASKLLREELEEAIKLSEGETPENRVNIFDVEIGSAIMELIEEGLLNDEEEEVLAEVRDELVARLRANPDLTPEEIRALAEEAVERFEKRLKELE
B21: GBRAP_160_4335 (protein)
chain: SAETEKLIKFIKEEFEKLKEDIKGLSIEQRKVLISGMFGEIIMELSENENISDELLDYVLEVEDELLETLDKNPDLSEEEIKELIDEAEEKIIEALKKSE
B22: GBRAP_160_4707 (protein)
chain: SETAEELIKYVDEEFEEMKEEIKGESAEQRATIARGAIGEIIMELVENPEASDELVDKVDEIGDELVETILSNPDLTDEEVEELIEEAREKIKKAIKEEI
B23: GBRAP_128_3373 (protein)
chain: VDEEKLEEVDELARAMAEADVEEARELAREIVELLSTLSKETAEKAVEIIKEHLPLLSAEKLDVFADVIRELRPEVDEYIASLLNDLEVEALNEAEEKEE
B24: GBRAP_80_6829 (protein)
chain: MEEELKKAIEELKKIDPEIAELVEEAIEIAKKLGVPLETLLRFTKAILELAKKDKEKARELVEELLKELKEAEKRGNKDEAEALLAEAESEALLAVEELE
B25: GBRAP_11_2877 (protein)
chain: KKEKLKEIAELAEKLVELIEKLLKEGTDNKELIEEATKLLEELEKLVKEYADEALKKLAKILKEEWEKALKDKENAEQYLQEALTIARVLSGQALLEYEE
B26: GBRAP_48_5826 (protein)
chain: AKPPLEVLEKLVEETVEFIKEIYEEAKEEGLSDEEILKMIKAELGDLSLELEEAGFEKAADFLRDPKNRDEIAKTLLELLKKGKVEEAKKYLLERLLKAE
B27: GBRAP_128_3253 (protein)
chain: MDEAVVERARAFVEALKNSDAETRKAIAAEFAAWLLSLSLEQAEQAAEVVKERLPELSAEDLDILADALAAAMPKATPEKANVLADLRVEALNEREEKEE
B28: GBRAP_9_7149 (protein)
chain: MKELIEKLREVVRDMFELVAEIVPEEVHPVVEKMLEEAEKRFEELAKDKTITKEEAVEKAKEIVREFRDAVAAEVDPETARMVQAVADTAELEIEEIAEE
B29: GBRAP_52_6006 (protein)
chain: MREELEKVLREALELVKAGKEEEAYKLLLETVKSLNDEEVELLVEELARLAARAPLEDHDAVWRLAELLAEALEEAGKDEALADEALARVAAALYDNELR

These binders were tested against GABARAP, O95166 (assay: median log2 fold change of GCK-ALFA target abundance (FLAG IP / Myc IP barcode read proportion) (log2 ratio); each designed protein is fused to an ALFA-tag nanobody in HEK293 cells to bring the named protein to FLAG-tagged glucokinase (GCK); Myc marks an untargeted standard; higher = target protein stabilised (more abundant)). Conditions: target protein: 3xFLAG-MCP-GCK-ALFA reporter; HEK293 landing pad (RPLP).
GABARAP, O95166, sequence (O95166 whole entry, the tested form may be a part): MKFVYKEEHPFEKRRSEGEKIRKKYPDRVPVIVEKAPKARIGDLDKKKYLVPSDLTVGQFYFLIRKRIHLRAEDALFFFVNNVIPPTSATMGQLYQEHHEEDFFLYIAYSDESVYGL
Outline: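 An ALFA-nanobody-fused binder library was recombined into HEK293 landing-pad cells and induced with 2 μg mL^−1 doxycycline. Cells were transfected with a plasmid expressing a FLAG-tagged target and a Myc-tagged standard. After 48 h, lysates underwent anti-FLAG and anti-Myc immunoprecipitation, and circular RNA barcodes were reverse transcribed, amplified and sequenced. Target abundance is the per-binder median log2 ratio of FLAG to Myc barcode read proportions. Barcodes needed ≥10^−7 proportion in both replicates, binders ≥3 barcodes per replicate, and a 10^−6 pseudocount was added; the two replicates were pooled.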

Row | Binder | median log2 fold change
1 | B1 | 0.148
2 | B2 | -0.00777
3 | B3 | 0.0243
4 | B4 | -0.173
5 | B5 | 0.00223
6 | B6 | -0.155
7 | B7 | 0.0598
8 | B8 | 0.189
9 | B9 | -0.223
10 | B10 | 0.109
11 | B11 | -0.295
12 | B12 | 0.424
13 | B13 | -0.109
14 | B14 | 0.0969
15 | B15 | 0.134
16 | B16 | 0.0718
17 | B17 | -0.0521
18 | B18 | 0.0561
19 | B19 | 0.215
20 | B20 | 0.0742
21 | B21 | -0.0507
22 | B22 | -0.312
23 | B23 | 0.123
24 | B24 | 0.192
25 | B25 | 0.232
26 | B26 | 0.157
27 | B27 | 0.212
28 | B28 | 0.0444
29 | B29 | -0.177
